# Data reported in patent US11366114B2, “Genetically encoded fluorescent sensors for detecting ligand bias and intracellular signaling through cAMP pathways” (MONTANA MOLECULAR LLC, priority 2013, dated 2022).
# B1: Library 6-2 C1: cAMP sensor with random two-amino-acid linkers, position 10 of Epac2; SEQID 16 in Table 1, SEQ ID NO: 17 in Table 3 (protein)
# chain: MVAAHAAHSSSSAEWIACLDKRPLERSSEDVDIIFTRLKEVKAFEKFHPNLLHQICLCGYYENLEKGITLFRQGDIGTNWYAVLAGSLDVKVSETSSHQDAVTICTLGIGTAFGESILDNTPRHATIVTRESSELLRIEQKDFKALWEKYRQYMAGLLAPPYGVMETGSNNDRIPDKENTPLIEPHVPLRPANTITKVPSEKILRAGKILRNAILSRAPHMIRDRKYHLKTYRQCCVGTELVDWMMQQTPCVHSRTQAVGMWQVLLEDGVLNHVDQEHHFQDKYLFYRFLDDEHEDAPLPTEEEKKECDEELQDTMLLLSQMGPDAHMRMILRKPPGQRTVDDLEIIYEELLHIKALSHLSTTVKRELAGVLIFESHAKGGTVLFNQGEEGTSWYIILKGSVNVVIYGKGVVCTLHEGDDFGKLALVNDAPRAASIVLREDNCHFLRVDKEDFNRILRDVEANLENVYIKADKQKNGIKANFKIRHNIEDGGVQLAYHYQQNTPIGDGPVLLPDNHYLSVQSILSKDPNEKRDHMVLLEFVTAAGITLGMDELYKGGTGGSMVSKGEELFTGVVPIQVELDGDVNGHKFSVSGEGEGDATYGKLTLKFICTTGKLPVPWPTLVTTLTYGVQCFSRYPDHMKQHDFFKSAMPEGYIQERTIFFKDDGNYKTRAEVKFEGDTLVNRIELKGIDFKEDGNILGHKLEYNTRTVRLKEHDQDVLVLEKVPAGNRASNQGNSQPQQKYTVMSGTPEKILEHFLETIRLEATLNEATDSVLNDFIMMHCVFMPNTQLCPALVAHYHAQPSQGTEQEKMDYALNNKRRVIRLVLQWAAMYGDLLQEDDVSMAFLEEFYVSVSDDARMIAALKEQLPELEKIVKQISEDAKAPQKKHKVLLQQFNTGDERAQKRQPIRGSDEVLFKVYCMDPTYTTIRVPVATSVKEVISAVADKLGSGEGLIIVKMSSGGEKVVLKPNDVSVFMTLTINGRLFACPREQFDSLTPLPEQEGPTVGTVGTFELMSSKDLAYQMTIYDWELFNCVHELELIYHTFGRHNFKKTTANLDLFLRRFNEIQFWVVTEICLCSQLSKRVQLLKKFIKIAAHCKEYKNLNSFFAIVMGLSNVAVSRLALTWEKLPSKFKKFYAEFESLMDPSRNHRAYRLTVAKLEPPLIPFMPLLIKDMTFTHEGNKTFIDNLVNFEKMRMIANTARTVRYYRSQPFNPDAAQANKNHQDVRSYVRQLNVIDNQRTLSQMSHRLEPRRP
# B2: Library 4-2 B1: cAMP sensor from shuffled library 4; SEQ ID NO: 4 in Table 3, absent from Table 1 (protein)
# chain: MVAAHAAHSSSSAEWIACLDKRPLERSSEDVDIIFTRLKEVKAFEKFHPNLLHQICLCGYYENLEKGITLFRQGDIGTNWYAVLAGSLDVKVSETSSHQDAVTICTLGIGTAFGESILDNTPRHATIVTRESSELLRIEQKDFKALWEKYRQYMAGLLAPPYGVMETGSNNDRIPDKENTPLIEPHVPLRPANTITKVPSEKILRAGKILRNAILSRAPHMIRDRKYHLKTYRQCCVGTELVDWMMQQTPCVHSRTQAVGMWQVLLEDGVLNHVDQEHHFQDKYLFYRFLDDEHEDAPLPTEEEKKECDEELQDTMLLLSQMGPDAHMRMILRKPPGQRTVDDLEIIYEELLHIKALSHLSTTVKRELAGVLIFESHAKGGTVLFNQGEEGTSWYIILKGSVNVVIYGKGVVCTLHEGDDFGKLALVNDAPRAASIVLREDNCHFLRVDKEDFNRILRLVSHNVYIKADKQKNGIKANFKIRHNIEDGGVQLAYHYQQNTPIGDGPVLLPDNHYLSVQSILSKDPNEKRDHMVLLEFVTAAGITLGMDELYKGGTGGSMVSKGEELFTGVVPIQVELDGDVNGHKFSVSGEGEGDATYGKLTLKFICTTGKLPVPWPTLVTTLTYGVQCFSRYPDHMKQHDFFKSAMPEGYIQERTIFFKDDGNYKTRAEVKFEGDTLVNRIELKGIDFKEDGNILGHKLEYNFNNPDVEANTVRLKEHDQDVLVLEKVPAGNRASNQGNSQPQQKYTVMSGTPEKILEHFLETIRLEATLNEATDSVLNDFIMMHCVFMPNTQLCPALVAHYHAQPSQGTEQEKMDYALNNKRRVIRLVLQWAAMYGDLLQEDDVSMAFLEEFYVSVSDDARMIAALKEQLPELEKIVKQISEDAKAPQKKHKVLLQQFNTGDERAQKRQPIRGSDEVLFKVYCMDPTYTTIRVPVATSVKEVISAVADKLGSGEGLIIVKMSSGGEKVVLKPNDVSVFMTLTINGRLFACPREQFDSLTPLPEQEGPTVGTVGTFELMSSKDLAYQMTIYDWELFNCVHELELIYHTFGRHNFKKTTANLDLFLRRFNEIQFWVVTEICLCSQLSKRVQLLKKFIKIAAHCKEYKNLNSFFAIVMGLSNVAVSRLALTWEKLPSKFKKFYAEFESLMDPSRNHRAYRLTVAKLEPPLIPFMPLLIKDMTFTHEGNKTFIDNLVNFEKMRMIANTARTVRYYRSQPFNPDAAQANKNHQDVRSYVRQLNVIDNQRTLSQMSHRLEPRRP
# B3: EcpG10 G2: cAMP sensor; SEQID 4 in Table 1, SEQ ID NO: 5 in Table 3 (protein)
# chain: MVAAHAAHSSSSAEWIACLDKRPLERSSEDVDIIFTRLKEVKAFEKFHPNLLHQICLCGYYENLEKGITLFRQGDIGTNWYAVLAGSLDVKVSETSSHQDAVTICTLGIGTAFGESILDNTPRHATIVTRESSELLRIEQKDFKALWEKYRQYMAGLLAPPYGVMETGSNNDRIPDKENTPLIEPHVPLRPANTITKVPSEKILRAGKILRNAILSRAPHMIRDRKYHLKTYRQCCVGTELVDWMMQQTPCVHSRTQAVGMWQVLLEDGVLNHVDQEHHFQDKYLFYRFLDDEHEDAPLPTEEEKKECDEELQDTMLLLSQMGPDAHMRMILRKPPGQRTVDDLEIIYEELLHIKALSHLSTTVKRELAGVLIFESHAKGGTVLFNQGEEGTSWYIILKGSVNVVIYGKGVVCTLHEGDDFGKLALVNDAPRAASIVLREDNCHFLRVDKEDFNRILRDVLENVYIKADKQKNGIKANFKIRHNIEDGGVQLAYHYQQNTPIGDGPVLLPDNHYLSVQSILSKDPNEKRDHMVLLEFVTAAGITLGMDELYKGGTGGSMVSKGEELFTGVVPIQVELDGDVNGHKFSVSGEGEGDATYGKLTLKFICTTGKLPVPWPTLVTTLTYGVQCFSRYPDHMKQHDFFKSAMPEGYIQERTIFFKDDGNYKTRAEVKFEGDTLVNRIELKGIDFKEDGNILGHKLEYNTREANTVRLKEHDQDVLVLEKVPAGNRASNQGNSQPQQKYTVMSGTPEKILEHFLETIRLEATLNEATDSVLNDFIMMHCVFMPNTQLCPALVAHYHAQPSQGTEQEKMDYALNNKRRVIRLVLQWAAMYGDLLQEDDVSMAFLEEFYVSVSDDARMIAALKEQLPELEKIVKQISEDAKAPQKKHKVLLQQFNTGDERAQKRQPIRGSDEVLFKVYCMDPTYTTIRVPVATSVKEVISAVADKLGSGEGLIIVKMSSGGEKVVLKPNDVSVFMTLTINGRLFACPREQFDSLTPLPEQEGPTVGTVGTFELMSSKDLAYQMTIYDWELFNCVHELELIYHTFGRHNFKKTTANLDLFLRRFNEIQFWVVTEICLCSQLSKRVQLLKKFIKIAAHCKEYKNLNSFFAIVMGLSNVAVSRLALTWEKLPSKFKKFYAEFESLMDPSRNHRAYRLTVAKLEPPLIPFMPLLIKDMTFTHEGNKTFIDNLVNFEKMRMIANTARTVRYYRSQPFNPDAAQANKNHQDVRSYVRQLNVIDNQRTLSQMSHRLEPRRP
# B4: Library 2-2 E7: cAMP sensor; SEQID 5 in Table 1, SEQ ID NO: 6 in Table 3 (protein)
# chain: MGSNNDRIPDKENTPLIEPHVPLRPANTITKVPSEKILRAGKILRNAILSRAPHMIRDRKYHLKTYRQCCVGTELVDWMMQQTPCVHSRTQAVGMWQVLLEDGVLNHVDQEHHFQDKYLFYRFLDDEHEDAPLPTEEEKKECDEELQDTMLLLSQMGPDAHMRMILRKPPGQRTVDDLEIIYEELLHIKALSHLSTTVKRELAGVLIFESHAKGGTVLFNQGEEGTSWYIILKGSVNVVIYGKGVVCTLHEGDDFGKLALVNDAPRAASIVLREDNCHFLRVDKEDFNRILRRANVYIKADKQKNGIKANFKIRHNIEDGGVQLAYHYQQNTPIGDGPVLLPDNHYLSVQSILSKDPNEKRDHMVLLEFVTAAGITLGMDELYKGGTGGSMVSKGEELFTGVVPIQVELDGDVNGHKFSVSGEGEGDATYGKLTLKFICTTGKLPVPWPTLVTTLTYGVQCFSRYPDHMKQHDFFKSAMPEGYIQERTIFFKDDGNYKTRAEVKFEGDTLVNRIELKGIDFKEDGNILGHKLEYN
# Tested on: cAMP
# Assay: Fluorescence response of cAMP sensors to isoproterenol in HEK 293 cells co-expressing the beta adrenergic receptor
# Assay type: cell-based, human
# Conditions: for Relative Change in Fluorescence: in response to isoproternol
# Experimental: To test the functionality of these 28 prototype sensors, each construct was co-expressed with the beta adrenergic receptor, which couples to the Gs signaling pathway when activated by isoproteronol, in HEK 293 cells, and the fluorescence measured as described below. Briefly, 96-well glass-bottom plates were coated with Poly-D-Lysine (Fisher Scientific, Pittsburgh, Pa.) and HEK 293 were seeded and cultured in EMEM (ATCC, Manassas, Va.) supplemented with 10% fetal bovine serum and Penicillin-Streptomycin at 37 […] and 30 ng of beta adrenergic receptor per well, using Lipofectamine 2000 Transfection Reagent (Life Technologies, Grand Island, N.Y.) according to the manufacturer's protocol, and incubated for 24-48 hours at 37° C. in 5% CO2.
# Prior to screening transfected cells for fluorescence, he EMEM culture medium was removed and 1×DPBS added to each well. A Zeiss Axiovert S100TV inverted microscope equipped with computer controlled excitation/emission filter wheels, shutters, and a Qimaging Retiga Exi CCD camera (Surrey, BC Canada) was used to image cells at 25e A) supplemented with 10% fetal bovine serum and Penicillin-Streptomycin at 37hn filters were used to resolve the green fluorescence from the cAMP sensors. Cells were analyzed for increases or decreases in fluorescence intensity upon addition of isoproternol, DMSO, forskolin and IBMX. To analyze the image stacks, background fluorescence was defined as a region of the image that contained no cells. The average value of this region was subtracted frame by frame from the measurements of the mean pixel values of the fluorescent cells. Fluorescence intensity data was plotted and analyzed with IGOR (Wavemetrics, Oswego, Oreg.).
# For transient expression and screening in an automated fluorescence plate reader, HEK 293T cells were cultured in Corning Co-Star Polystyrene 96-well plates coated with Poly-D-Lysine. HEK293T cells were plated at 35,000 cells/well in 100 μl growth medium per well without antibiotics so that the cells would be 90-95% confluent at the time of transfection (approximately 24 hours later). For each transfection (i.e. one well in a 96-well plate), 160 ng of plasmid DNA (120 ng sensor+40 ng receptor) was diluted in […] and then the mixture was replaced with fresh medium. Prior to scanning a plate on the Biotek Synergy Mx, EMEM culture medium was replaced with 250 μl of 1×DPBS per well. Plates were read at 25° C., using monochromators set to 488/20 nm excitation and 530/20 nm emission to resolve the green fluorescence from the cAMP sensor.
Molecule,change in fluorescence in response to drug (direction not given),Relative Change in Fluorescence
B1,30%,−34%
B2,,61%
B3,,60%
B4,,−53%
